In article PMC4336329 (PLoS ONE, 2015):
Screen size: about 310,000 compounds; about 2,200 (0.71%) showed an effect of 50% or more. The effect is printed as a negative number. Some of the results follow. Where a SMILES comes first, the peptide text is derived from it. [ ]: non-standard residue; d: D form. NMeY = CN[C@@H](Cc1ccc(O)cc1)C(=O)O; NMeF = CN[C@@H](Cc1ccccc1)C(=O)O; 2Abz = Nc1ccccc1C(=O)O

These molecules were tested against human ether-à-go-go-related gene (hERG) potassium channel (human, UniProt Q12809) (assay: primary screen, population patch clamp on CHO cells stably expressing hERG).
Sequence of human ether-à-go-go-related gene (hERG) potassium channel (Q12809 whole entry, looked up): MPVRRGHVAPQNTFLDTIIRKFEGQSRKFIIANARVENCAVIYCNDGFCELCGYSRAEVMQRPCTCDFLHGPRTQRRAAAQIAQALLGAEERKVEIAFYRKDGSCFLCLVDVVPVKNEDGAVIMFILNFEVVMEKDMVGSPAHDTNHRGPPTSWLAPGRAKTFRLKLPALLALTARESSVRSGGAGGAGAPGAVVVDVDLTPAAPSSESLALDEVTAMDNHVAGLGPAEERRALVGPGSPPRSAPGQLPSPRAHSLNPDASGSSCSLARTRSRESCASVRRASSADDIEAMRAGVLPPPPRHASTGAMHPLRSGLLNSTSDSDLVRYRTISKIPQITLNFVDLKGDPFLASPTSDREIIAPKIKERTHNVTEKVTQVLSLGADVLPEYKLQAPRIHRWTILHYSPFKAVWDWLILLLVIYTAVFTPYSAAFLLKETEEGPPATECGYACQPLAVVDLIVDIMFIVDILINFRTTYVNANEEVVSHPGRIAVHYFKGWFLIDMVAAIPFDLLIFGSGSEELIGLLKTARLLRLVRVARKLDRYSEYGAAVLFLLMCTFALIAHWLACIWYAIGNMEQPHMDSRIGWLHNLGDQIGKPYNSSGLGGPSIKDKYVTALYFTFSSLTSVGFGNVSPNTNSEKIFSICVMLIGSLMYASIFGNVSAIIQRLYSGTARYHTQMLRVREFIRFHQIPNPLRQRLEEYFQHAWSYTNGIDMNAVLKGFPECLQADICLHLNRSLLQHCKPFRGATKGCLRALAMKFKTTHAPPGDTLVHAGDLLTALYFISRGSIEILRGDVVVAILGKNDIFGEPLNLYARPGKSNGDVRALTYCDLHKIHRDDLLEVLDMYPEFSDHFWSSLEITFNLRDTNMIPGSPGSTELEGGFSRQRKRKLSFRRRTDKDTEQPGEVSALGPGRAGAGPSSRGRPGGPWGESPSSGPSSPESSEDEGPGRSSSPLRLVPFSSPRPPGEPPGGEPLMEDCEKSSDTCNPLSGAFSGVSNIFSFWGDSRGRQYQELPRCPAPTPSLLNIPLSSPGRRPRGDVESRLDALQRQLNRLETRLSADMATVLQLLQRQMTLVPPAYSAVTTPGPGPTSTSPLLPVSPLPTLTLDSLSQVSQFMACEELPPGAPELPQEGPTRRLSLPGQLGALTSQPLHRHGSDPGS

Row | Compound | hERG current change (%, negative = inhibition) at 1uM [%]
1 | Cc1ccc(S(=O)(=O)NCCC(=O)Nc2ccc(C)cc2C(=O)c2ccccc2)cc1 | -6.94
2 | O=C(Nc1nc(-c2ccccn2)cs1)c1ccc(F)c(S(=O)(=O)N2CCOCC2)c1 | 5.44
3 | O=C(COc1ccc(Br)cc1)NCc1cn2ccccc2n1 | -4.23
4 | COCCn1c(C)cc(C(=O)COC(=O)c2ccc3ncsc3c2)c1C | 10.3
5 | CN(C)CCNc1nc2sc3c(c2c(=O)n1CCc1ccccc1)CCCCC3 | 8.83
6 | CCOC(=O)Cc1csc(NC(=S)NC(=O)c2ccccc2Br)n1 | 10.4
7 | CC(=O)c1c(C)oc2ccc(N(C(C)=O)S(=O)(=O)c3ccc(Br)cc3)cc12 | 7.68
8 | O=C(Nc1ccc(NC(=O)c2ccccc2F)cc1)c1ccccc1F | 17.3
9 | Cc1cc(=O)n2c3ccccc3n(CC(O)CN3CCCCC3)c2c1C#N (stereo not drawn) | -13.5
10 | S=C(Nc1ccc(Br)cc1)NC1CCCCC1 | 5.81
11 | CCOC(=O)C1C(=O)CC(C)(O)C(C(=O)OCC)C1c1ccc2c(c1)OCO2 (stereo not drawn) | -0.261
12 | Cc1cc(C)cc(N2C(=O)C3CC=CCC3C2=O)c1 (stereo not drawn) | 7.16
13 | CCc1ccc2oc(C(=O)NCC(c3ccc(OC)cc3)N3CCCCC3)c(C)c2c1 (stereo not drawn) | 5.54
14 | COCCn1nnnc1C(c1ccccn1)N1CCN(c2cc(Cl)ccc2C)CC1 (stereo not drawn) | 7.86
15 | Cc1ccccc1OCCNC(=O)c1ccco1 | 14
16 | CCOC(=O)c1cnn(-c2cc(C)cc(C)c2)c1N | 0.708
17 | NNc1ccc2c(C(F)(F)F)cc(C(F)(F)F)nc2n1 | 12.4
18 | O=C(CCc1ccccc1)N1CCN(c2ccccc2F)CC1 | 13
19 | O=C(CCS(=O)(=O)c1ccc(F)cc1)Nc1nnc(-c2cccs2)o1 | 14.8
20 | Cc1ccc(-c2cc(C(=O)NCCCn3ccnc3)c3cc(Br)ccc3n2)o1 | -21.3
21 | CCN(C(=O)COC(=O)Cc1ccccc1)c1c(N)n(Cc2ccccc2)c(=O)[nH]c1=O | 17.5
22 | N#CC1=C2SCC(O)(c3ccccc3)N2C(=O)CC1c1ccccc1 (stereo not drawn) | 2.34
23 | O=C(Nc1ccc2c(c1)OCCO2)N1CCN(c2ccccc2)CC1 | -9.73
24 | COc1ccc(N(CC(=O)NCc2ccncc2)S(=O)(=O)c2ccccc2[N+](=O)[O-])c(OC)c1 | -1.43
25 | CCOc1cc(-c2ccccc2)nc(N)n1 | -1.35
26 | Cc1nn(-c2ccccc2)c(C)c1NC(=O)COc1ccc2ccccc2c1 | -11.1
27 | Cn1c(=O)c2c(ncn2Cc2cccc(Cl)c2)n(C)c1=O | 7.58

Row | Compound | hERG current change (%, negative = inhibition) at 1uM [%]
28 | Cc1c(N/C=C/C(=O)C(F)(F)F)c(=O)n(-c2ccccc2)n1C | 14.7
29 | CCCC(=O)N(CC(=O)Nc1sc(C)c(C)c1C(N)=O)Cc1ccccc1 | -5.81
30 | COc1ccc(/C=C(\NC(=O)c2ccccc2)C(=O)NCC2CCCO2)cc1 (stereo not drawn) | 7.36
31 | Cc1ccccc1C#N | 19.9
32 | Fc1ccc(CN2CCCN(Cc3nc(-c4ccc5c(c4)OCO5)no3)CC2)cc1 | -4.38
33 | CCOC(=O)[C@H]1[C@H]2COc3ccccc3[C@@H]2N2C(=O)c3ccc(Cl)cc3NC(=O)[C@@]12C | 12.6
34 | Cc1ccc(C(=O)NNC(=O)C2CCN(c3nc(C)cc(C)n3)CC2)cc1 | 11.4
35 | Cc1ccccc1OCC(=O)Nc1cc(S(=O)(=O)N2CCCCC2)ccc1N1CCN(C)CC1 | 10.6
36 | O=c1cc(CN2CCN(c3ccccc3O)CC2)nc2sccn12 | 15.8
37 | CC(NC(=O)c1cccs1)c1ccccc1 (stereo not drawn) | 14.6
38 | COc1cccc(CNC(=O)CS(=O)(=O)Cc2nc(-c3ccc(C)cc3)oc2C)c1OC | 12.6
39 | CC1CCC(NC(=O)C(=O)Nc2ccc3c(c2)OCO3)CC1 (stereo not drawn) | 17.7
40 | Cc1cccc(OCc2nnc(N)s2)c1 | 0.653
41 | CC1CCN(c2c(NCC3CCC(C(=O)NCCc4ccc(Cl)cc4)CC3)c(=O)c2=O)CC1 (stereo not drawn) | -2.69
42 | Cc1ccc(S(=O)(=O)N2CCCOC2CNC(=O)C(=O)NCc2ccc3c(c2)OCO3)cc1 (stereo not drawn) | 4.55
43 | CC(C)C[C@@H]1NC(=O)[C@H](Cc2ccccc2)N(C)C(=O)[C@H](C)NC(=O)c2ccccc2NC(=O)[C@H](Cc2ccc(O)cc2)N(C)C1=O (cyclo([2Abz]A[NMeF]L[NMeY])) | 5.8
44 | Cc1cccc(C)c1NC(=O)CN(C)CC(=O)Nc1ccc(C#N)c(Cl)c1 | 4.68
45 | CC1CCCN(c2ccc(C(=O)OCn3nnc4ccccc4c3=O)cc2[N+](=O)[O-])C1 (stereo not drawn) | 11.1
46 | Cc1ccc(NC(=O)CCn2nnc3ccccc32)c(C)c1 | 6.38
47 | COc1ccc(C(=O)NC2(C(F)(F)F)N=C3SCCN3C2=O)cc1 (stereo not drawn) | 14.4
48 | Cc1ccc(N2C(=O)/C(=C/c3ccc(CN(CCC#N)S(C)(=O)=O)o3)C(=O)NC2=S)cc1C | 13.4
49 | O=C(COc1ccccc1Br)Nc1ccc(S(=O)(=O)N2CCCC2)cc1 | 2.33
50 | CCOC(=O)CNC(=O)CSc1nc(Cc2ccccc2)nc2ccccc12 | 3.02
51 | CCOC(=O)c1ccc(NS(=O)(=O)CC)cc1 | 18.7
52 | Cc1ccc(CCNC(=O)C2CC(c3ccccc3[N+](=O)[O-])=NO2)cc1 (stereo not drawn) | 14.4
53 | Cl.O=c1c(-c2ccccc2)coc2c(CN3CCCCC3)c(O)ccc12 | 14.4
54 | CC1CCN(c2nc3c(c(=O)n(C)c(=O)n3C)n2Cc2ccccc2)CC1 | 3.95
